B1: CPEB3 Ribozyme (parent)
chain: UAACAGGGGGCCACAGCAGAAGCGUUCACGUCGCAGCCCCUGUCAGAUUCUGGUGAAUCUGCGAAUUCUGCUGUAUAUCUC

The source gives no read counts; variants with many changes may rest on few reads.

Variants of B1 are the subject of this data set. Kind of data set: self-cleavage, relative activity (ratio to wild type); higher = more cleavage; in vitro, sequencing. An outline of the steps: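 For each CPEB3 ribozyme variant, relative activity is its cleaved/total read fraction divided by the unmutated ribozyme's. Barcoded error-prone PCR libraries were transcribed by T7 RNA polymerase (5 hours, 37°C) and held in DNase I for 15 min before an EDTA stop, with cleavage occurring throughout. Template-switching reverse transcription and Illumina sequencing were used to read the RNAs. A 5-read minimum applied, and results are the mean of three batches.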
For the variant UAACAGGGGGCCACAGCAGAAUCGUUCAUGUCGCAGCCCCUGUCAGAUCCUGGUGAAUCCGCGAAUUCUGCUGUAUAUCUC [G22U C29U U49C U60C], the self-cleavage is 0.12.
With UAACAGGGGGCCACAGCAGAAGAGUUCACGACGCAGCCCCUGUCAGGUCCUGGUGAAUCUGCGAAUUCUGCUGUAUAUCUC [C23A U31A A47G U49C] the figure was 0.11.
In the case of UAACAGGGGGCCACAGCAGAAUCGUUCACGUCGCAGCCCCUGUCAGAUUCUGGUGGAUCUGCGAAUUCUGCUGUAUACCUC [G22U A56G U78C], the self-cleavage turned out to be 0.09.
With UAACAGGGGGCCACAGCAGAAUCGUCCACGUCGCAGCCCCUGUCAGAUUCUGGUGAAUCUGCGGGUUCUGCUGUAUACCUC [G22U U26C A64G A65G U78C] the figure was 0.08.
Take UAACAGGGGGCCACAGCAGAAGAGUUCACGUCGCGGCCCCUGUCAGGUUCUGGUGAAUCUGCGAAUUCUGCUGUAUAUUUC [C23A A35G A47G C79U]: the self-cleavage is 0.11.
Turning to UAACAGGGGGCCACAGCAGAAGAGUUCACGUCGAAGCCCCUGUCAGAUUCAGGUGAAUCUGCGAAUUCUGCUGUAUAUCUC [C23A C34A U51A], the self-cleavage turned out to be 0.14.
On to UAACAGGGGGCCACAGCAGAAGAGUUCACGUCGCAGCCCCUGUCGGAUACUGGUGAAUCUGCGAAUUCUGCUGUAUAUCUC [C23A A45G U49A], for which the self-cleavage was 0.47.
UAACAGGGGGCCACAGCAGAAGAGUUCACGACGCAGCCCCUGUCAGAUUCUGGUGGAUCUGCGAACUCUGCUGUAUAUCUC [C23A U31A A56G U66C]: the self-cleavage was found to be 0.06.
Regarding UAACAGGGGGCCACAGCAGAAUCGUUCACGUCGCAGCCCCCGUCAGAUUCUGGUGAACCCGCGAACUCUGCUGUAUACCUC [G22U U41C U58C U60C U66C U78C], the self-cleavage turned out to be 0.07.
The same measure for UAACAGGGGGCCACAGCAGAAGAGUUCACGUCGCUGCCACUGUCAGAUUCUGGUGAAGCUGCGAACUCUGCUGUAUAUCUC [C23A A35U C39A U58G U66C]: 0.07; for UAACAGGGGGCCACAGCAGAAUCGUUCACGUCGCAGCCCCUGUCAGAUCCUGGCGAAUCUGCGAAGUCUGCUGUAUAUCUC [G22U U49C U54C U66G]: 0.15; for UAACAGGGGGCCACAGCAGAAGAGUUCACGUCGCAGCCCCUGUCGGAUUCUGGAGAAUCUGCGAAUUCUGCUGUAUAUCUC [C23A A45G U54A]: 0.17.
On to UAACAGGGGGCCACAGCAGAAGAGUUCACGUCGCGGCCCCUGUCUGCAUCUGGUGAAUCCGCGAAUUCUGCUGUAUAUCUC [C23A A35G A45U A47C U48A U60C], for which the self-cleavage is 0.07.
As for UAACAGGGGGCCACAGCAGAAUCGUUCACGUCGCAGCCCCAGUCAGUUUCUGGUGAAUCUGCGAAUUCUGCCGUAUAUCUC [G22U U41A A47U U72C], the self-cleavage is 0.13.
In the case of UAACAGGGGGCCACAGCAGAAUCGUUAGCGACGCAGCCCCUGUCAGAUUCUGGCGAAUCUGCGAAUUCAGCUGUAUAUCCC [G22U C27A A28G U31A U54C U69A U80C], the self-cleavage was 0.06.
Take UAACAGGGGGCCACAGCAGAAGAGUUCUCGUCGCAGCCCCUGUCGGAUUCUGGUGAAUCUGCGAAUUCUGCUGUAUAUCUC [C23A A28U A45G]: the self-cleavage stood at 0.21.
UAACAGGGGGCCACAGCAGAAGAGUUCGAGUCGCAGCCCCUGUCAGAUUCUGGCGAAUCUGCGAAUUCUGCUGUAUAUCUC [C23A A28G C29A U54C]: the self-cleavage was determined as 0.09.
With UAACAGGGGGCCACAGCAGAAGAGUACACGUCGCCGCCCCUGUCAGAUUCUGGUGAAUCUGCGAGUUCUGCUGUAUAUCUC [C23A U26A A35C A65G], the self-cleavage stood at 0.16.
The same measure for UAACAGGGGGCCACAGCAGAAGAGUUCACGUCGCAGGCCCUGUCAGAUUCUGGUGAAUCUGCGAAUUCUGCCGUAUACCUC [C23A C37G U72C U78C]: 0.07; for UAACAGGGGGCCACAGCAGAAGAGUUCAAGUCGCAGCCCCUGUCAGAUUCUGGUGAAUCUGCGAAUACUGCUGUAUAUCUC [C23A C29A U67A]: 0.11.
As for UAACAGGGGGCCACAGCAGAAGAGUUCACGUCGCAGCCCCUGUCAGGUUCUGGUGAAUCUGCGAAUCCUGCUGUAUAUCUC [C23A A47G U67C], the self-cleavage worked out at 0.05.
For the variant UAACAGGGGGCCACAGCAGAAUCGUUCACGUCGCAGCCCCUGUCAGGUUCUGGUGAAUCUGCGAAUCCUGCUGCAUAUCUC [G22U A47G U67C U74C], the self-cleavage is 0.13.
As to UAACAGGGGGCCACAGCAGAAUCGUUCACGUCGCAGCGCCUGUCAGAUUCUGUUGAUUCUGCGAAUUCUGCUGUAUAUCUC [G22U C38G G53U A57U], the self-cleavage is 0.11.
With UAACAGGGGGCCACAGCAGAAGAGUUCACGUCGCGGCCCCUGUGAGUUUCUGGUGAAUCUGCGAAUUCCGCUGCAUUUCUC [C23A A35G C44G A47U U69C U74C A77U] the figure was 0.05; with UAACAGGGGGCCACAGCAGAAUCGUUCACGUCGCAGCCCCCGUCAGAUUCUGGUGAAUCUGCGAAUUCAGCUGCAUAUCUC [G22U U41C U69A U74C], 0.12.
In the case of UAACAGGGGGCCACAGCAGAAGAGUUCACGUCGCAGCCCCUGUCAAAUUCUGGUGGAUCUGCGUAUUCUGCUGUAUUUCUC [C23A G46A A56G A64U A77U], the self-cleavage turned out to be 0.04.
Turning to UAACAGGGGGCCACAGCAGAAUCGUUCACGUCGGAGCCCCUGUCAGAUUCUGAUGAAACUGCGAAUUCUGCUGUAUAUCUC [G22U C34G G53A U58A], the self-cleavage worked out at 0.1.
Take UAACAGGGGGCCACAGCAGAAUCGUUCACGUCGCAGCCCCUGUCAGUUUCUGGUGAAUCUGCGAAUUCUGCUGCAUAUCUC [G22U A47U U74C]: the self-cleavage is 0.1.
As for UAACAGGGGGCCACAGCAGAAGAGUUAACGUCGCAGCCCCAGUCAGAUUCUGGUGAAUCUGCGAAUUCUGCUGUAUAUCUC [C23A C27A U41A], the self-cleavage was 0.08.
On to UAACAGGGGGCCACAGCAGAAUCGUUCACGUCGCAGCCCCGGUCAGAUUCUGGUGAAUCUGCGAAUUCUGCCGUAUAUCUC [G22U U41G U72C], for which the self-cleavage was 0.07.
With UAACAGGGGGCCACAGCAGAAUCGUUCACGUCACGGCCCCUGUCAGAUUCUGGUGAAUCUGCGAAUUCUGCUGUAUAUCUC [G22U G33A A35G] the figure was 0.17; with UAACAGGGGGCCACAGCAGAAUCGUUCACGCCGCAGCACCUGUCAGAUUCUGGUGAAUCUGCGAAUUCUGCUGUAUAUCUC [G22U U31C C38A], 0.15.
Regarding UAACAGGGGGCCACAGCAGAAUCGUACACGUCGCAGCCCCUGUCAGAUUCUGGUGAAUCUGCGAAUUCUGCUGUAUAUCCC [G22U U26A U80C], the self-cleavage was determined as 0.25.
UAACAGGGGGCCACAGCAGAAGAGUUCACGACGCAGCCCCUGUCAGAUUCUGGUGGAUCUGCGAAUUCUGCUGUAUAUCCC [C23A U31A A56G U80C]: the self-cleavage came out at 0.25.
